Measurements: PubChem BioAssay AID686979 (National Center for Advancing Translational Sciences (NCATS), 2013)
Hit rate of the full screen: of about 420,000 compounds, about 50,000 (12%) were called active. The shares of active, inactive and inconclusive entries below differ from those in the screen. The call rests on the fitted dose curve; in most records, active means well fitted inhibition curve with a large enough effect; inconclusive means small, poorly fitted or top-dose-only effect; inactive means flat fitted curve, though single readings scatter. No potency is given beside an inconclusive call; the fits are too rough.

Test: qHTS for Inhibitors of human tyrosyl-DNA phosphodiesterase 1 (TDP1): qHTS in cells in presence of CPT; further: nearly all actives have a fitted effect of over 55% in size
Conditions: chicken DT40 Tdp1-/-;hTDP1 cells + 20 nM CPT, ATP luminescence, 48 h; activity change, negative = growth inhibition: at 46.2 µM (top of the series)
Outline: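 Chicken DT40 Tdp1-/- cells complemented with human TDP1, 400 cells/well, exposed to compounds plus 20 nM camptothecin for at least 48 h at 37 C; viability read as ATP content by CellTiter-Glo luminescence.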
On the % scale 0 is the no-effect control and ±100 the full control effect; potency means the concentration at half of the fitted maximal effect; tags describe the fitted curve by direction and shape.

Row | SMILES | Potency | activity change, negative = growth inhibition
1 | O=C1COc2ccc(C(=O)c3ccccc3)cc2CN1 | inactive | 
2 | COc1cccc(NC(=O)Cn2c(=O)n(CC(=O)NCc3ccc(C)cc3)c(=O)c3sccc32)c1 | inconclusive [inhibitor, single point] | 
3 | CC1(Cc2ccc(Cl)c(Cl)c2)C(=O)Nc2c(Cl)ccc(Cl)c21 (stereo not drawn) | inconclusive [inhibitor, single point] | 
4 | COc1cc(C)c(NC(=O)C(=S)NCc2ccccc2)cc1C | inactive | 
5 | Cc1ccc(S(=O)(=O)N2CCC3(CC2)CC(=O)c2ccccc2O3)cc1 | inconclusive [inhibitor, single point] | 
6 | COc1ccc(Cc2[nH]n3c(=O)cc(C(C)C)nc3c2-c2ccccc2)cc1 | active: 18.4 µM | 
7 | CCCCCCCCCCCCCCCCOCCOCCOCCOCCOCCOCCOCCOCCOCCOCCOCCOCCOCCOCCOCCOCCOCCOCCOCCOCCO | active: 23.7 µM | 
8 | N#CC(CCc1ccc([N+](=O)[O-])cc1)(CCc1ccc([N+](=O)[O-])cc1)C(N)=O | active: 23.1 µM | 
9 | Cc1ccc(C(=O)NCCc2nnc3n2CCN(C(=O)c2ccnc(Cl)c2)CC3)cc1 | inactive | 
10 | Cc1cccc(CNc2ccc(C(CC(N)=O)NC(=O)Cc3cccc4ccccc34)cc2[N+](=O)[O-])c1 (stereo not drawn) | inconclusive [inhibitor, single point] | 
11 | COc1cc(-c2cc3nc4ccccc4n3c(N)c2C#N)cc(OC)c1OC | inconclusive [inhibitor, single point] | 
12 | CC(=O)c1cc(F)c(N2CCCC2)cc1C | active: 20.6 µM | 
13 | Oc1c(C(c2ccc(F)cc2)N2CCc3ccccc3C2)sc2ncnn12 (stereo not drawn) | inconclusive [inhibitor, single point] | 
14 | CCN1CCN(C(=O)Cn2ncc3c4ccccc4n(Cc4ccccc4)c3c2=O)CC1 | active: 16.4 µM | 
15 | NNC(=O)CNC(c1ccccc1)c1cc(Br)ccc1N (stereo not drawn) | inactive | 
16 | COc1ccc(NC(=O)C(c2ccccc2)c2ccccc2)cn1 | inconclusive [inhibitor, single point] | 
17 | CC(=O)OCC1(O)CC23CCC4c5ccoc5CCC4(C)C2CCC1C3 (stereo not drawn) | inconclusive [inhibitor, single point] | 
18 | CCOC(=O)c1sc2c(c1C)c(=O)n(Cc1ccccc1)c(=O)n2CCN(C)C | inconclusive [inhibitor, single point] | 
19 | CCOC(=O)Cc1csc(NC(=O)c2ccc(S(=O)(=O)N3CCCC3)cc2)n1 | inconclusive [inhibitor, partial curve] | 
20 | CC(C)OC(=O)c1cccnc1N1CCN(c2ccc(F)cc2)CC1 | inconclusive [inhibitor, partial curve] | 
21 | O=C(NCc1ccccc1)C1CCC1 | inactive | 
22 | CCCCCC(=O)NN1C(=S)N(c2ccc(OC)cc2)C(=O)C1CC(=O)Nc1ccccc1 (stereo not drawn) | inactive | 
23 | CS(=O)(=O)CCC(C(=O)OCC(=O)c1ccc(Cl)cc1)N1C(=O)c2ccccc2C1=O (stereo not drawn) | inactive | 
24 | Cc1cc(C)c(Cn2c3ccccc3c3cnn(CC(=O)NCc4ccccn4)c(=O)c32)c(C)c1 | active: 20.6 µM | 
25 | Cc1c(C(=O)N2CCCC2)c(S(=O)(=O)Nc2cccc(Br)c2)c(C)n1C | inactive | 

Row | SMILES | Potency | activity change, negative = growth inhibition
26 | Cc1csc2ncnc(NNC(=O)c3ccc(Cl)cc3)c12 | inconclusive [inhibitor, full curve] | 
27 | O=C(Nc1ncc([N+](=O)[O-])s1)C1CC(=O)N(c2ccc(F)cc2)C1 (stereo not drawn) | inconclusive [inhibitor, single point] | 
28 | O=C1NC(=O)/C(=C/c2ccc(-c3cccc([N+](=O)[O-])c3)o2)S1 | active: 16.4 µM | 
29 | Cc1nc(-c2ccc(S(=O)(=O)N3CCCCCC3)cc2)cs1 | inconclusive [inhibitor, single point] | 
30 | CCC(=O)N1CCN(c2ccnc3cc(Cl)ccc23)CC1 | inconclusive [inhibitor, single point] | 
31 | Cc1noc(C)c1CCC(=O)N1CCCC(CCC(=O)NCc2ccccc2F)C1 (stereo not drawn) | inconclusive [inhibitor, single point] | 
32 | CCc1nc(SCC(=O)O)c(C#N)cc1C | inactive | 
33 | COC(=O)c1ccc(N2CCN(C)CC2)c(NC(=O)c2ccc(Br)o2)c1 | inconclusive [inhibitor, single point] | 
34 | CCOc1ccc(NC(=O)CN(C)C(=O)c2sccc2-c2ccccc2)cc1OCC | inconclusive [inhibitor, partial curve, poor fit] | 
35 | CCOC(=O)c1cccc(NC(=O)c2cn(-c3cccc(OC)c3)c(=O)c3ccccc23)c1 | inactive | 
36 | COc1ccccc1CCNC(=O)C(=O)NCC(c1cccs1)S(=O)(=O)c1ccccc1 (stereo not drawn) | inconclusive [inhibitor, single point] | 
37 | CCCCC(=O)N(c1ccc(C)c(C)c1)C1C=CS(=O)(=O)C1 (stereo not drawn) | inactive | 
38 | Cc1ccc(CCN2CC(C(=O)NC3CCCC3)CC2=O)cc1 (stereo not drawn) | inactive | 
39 | CC(=O)c1ccc(N=C2C(=O)Nc3ccccc32)cc1 | inconclusive [inhibitor, single point] | 
40 | O=C(CCS(=O)(=O)c1ccc(Br)cc1)Nc1ccc(Cl)c(C(F)(F)F)c1 | inconclusive [inhibitor, single point] | 
41 | CC(=O)N1CCN(Cc2nc3cc(NC(=O)c4cccs4)ccc3n2C)CC1 | inactive | 
42 | Cc1ccccc1NC(=O)C1CCN(C(=O)c2cnn(-c3ccccc3)c2-n2cccc2)CC1 | inconclusive [inhibitor, single point] | 
43 | COc1ccccc1CC1S/C(=N/N=C/c2ccco2)NC1=O (stereo not drawn) | inconclusive [inhibitor, single point] | 
44 | Cc1ccc(Cn2ccc(-c3cnc(-c4ccccc4)s3)n2)cc1 | inactive | 
45 | Fc1cc(F)c2ncc3c(-c4ccccc4)nn(-c4cccc(Cl)c4)c3c2c1 | inactive | 
46 | NC(=O)C1CCN(CC(=O)Nc2nc(-c3ccccc3)cs2)CC1 | inactive | 
47 | O=C(CSc1ccc2c(c1)OCCO2)NCCc1ccc(Cl)cc1Cl | inconclusive [inhibitor, partial curve] | 
48 | COc1ccc(C2=CSC(/N=C/c3ccc(F)cc3)=NN2)cc1 |  | inconclusive: -34% [inhibitor]
49 | Cc1c(CC(=O)N2CCC(O)CC2)c(=O)oc2cc3c(cc12)CCC1(CCCCC1)O3 | inconclusive [inhibitor, single point] | 
50 | O=C(O)c1ccc(C=NN=C2c3ccccc3-c3ccccc32)cc1 | inconclusive [inhibitor, partial curve] | 

Row | SMILES | Potency | activity change, negative = growth inhibition
51 | COc1ccc(C(C(=O)NC2CCCC2)n2c(Cc3cc(F)cc(F)c3)nc3ccccc32)cc1 (stereo not drawn) | inconclusive [inhibitor, single point] | 
52 | CCC1=C(c2ccc(C)cc2)S(=O)(=O)N=C1N1CCC(C(=O)NCCCN2CCCCC2C)CC1 (stereo not drawn) | inactive | 
53 | COc1ccc(-c2cc(C(F)(F)F)nc(-n3nc(C(F)(F)F)cc3C)n2)cc1 | active: 14.6 µM | 
54 | COc1ccc2cc(C(=O)C3CCCN(C(=O)CCc4cnn(C)c4)C3)ccc2c1 (stereo not drawn) | inconclusive [inhibitor, single point] | 
55 | COc1ccc(CNC(=O)c2sc3nc4c(c(C(F)(F)F)c3c2N)CCC4)cc1OC | inconclusive [inhibitor, single point] | 
56 | COC(=O)c1sc(NC(=O)COc2cccc3ccccc23)nc1C | inactive | 
57 | Cc1ccc(NC(=O)N(Cc2cc3cc(C)cc(C)c3[nH]c2=O)CC2COCCO2)cc1 (stereo not drawn) | inconclusive [inhibitor, partial curve] | 
58 | CCc1noc(C)c1C(=O)N1CCN(c2cccc(C)c2C)CC1 | inconclusive [inhibitor, single point] | 
59 | O=C(OCC1COC(c2ccccc2)(c2ccccc2)O1)c1ccccc1 (stereo not drawn) | inactive | 
60 | COc1ccc(S(=O)(=O)Nc2nc3ccccc3nc2Nc2cccc(C(=O)O)c2)cc1 | inactive | 
61 | Cn1c(=O)[nH]c(=O)c2c1nc(NCCN)n2CCOc1ccccc1 | inconclusive [inhibitor, single point] | 
62 | CCCCNc1oc(-c2cccs2)nc1S(=O)(=O)c1ccccc1 | inactive | 
63 | Cc1ccccc1OCC(=O)Nc1cccc(S(=O)(=O)NC2=NCCCCC2)c1 | inconclusive [inhibitor, partial curve] | 
64 | O=[N+]([O-])c1cccc(NC(=S)Nc2nc(-c3ccccc3Cl)cs2)c1 | inconclusive [inhibitor, single point] | 
65 | CCc1ccc(-n2c(N3CCN(c4cccc(Cl)c4)CC3)nc3ccccc3c2=O)cc1 | active: 6.51 µM | 
66 | CC(C)(C)OC(=O)N1CCC(c2cc(=O)n3[nH]cc(C(=O)Nc4ccc(F)c(Cl)c4)c3n2)CC1 | inactive | 
67 | COc1cccc(NC(=O)CSC2=C(C#N)C(c3ccco3)C3=C(CCCC3=O)N2)c1 (stereo not drawn) | inactive | 
68 | COc1cc(Cl)c(C)cc1NC(=O)COC(=O)c1cc(SC)ccc1Cl | inactive | 
69 | Cc1ccc(-n2c(SCC(=O)N3CCOCC3)nnc2-c2ccncc2)cc1C | inactive | 
70 | COc1cc(OC)cc(C(=O)N[C@H](C(=O)NC23CC4CC(CC(C4)C2)C3)C(C)C)c1 | active: 29.1 µM | 
71 | CC1CCN(c2oc(-c3ccc(COc4ccccc4)o3)nc2C#N)CC1 | active: 20.6 µM | 
72 | CCOC(=O)c1sc(NC(=O)COc2ncnc3ccccc23)c(C(=O)OCC)c1C | inconclusive [inhibitor, single point] | 
73 | COc1ccc(-c2sc3cc(OC)c(OC)cc3c2C#CC(C)(C)O)cc1 | inconclusive [inhibitor, single point] | 
